Laboratory results: the supplement of paper PMC6089552
Hit rate of the full screen: of about 3,200 compounds, about 300 (9.4%) showed activity. This is a selection; strong and weak results do not stand in their true shares.

Tested on: A673/TR/shEF
Experiment: cell viability (LOESS-normalised, relative to median of negative controls) (log2 ratio); higher = more viable cells (less compound effect), active = hit call of the paper (over 3 MAD below the median)
Settings: treatment time: 72 h
How it was run: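 Doxycycline, present or absent from 24 h before compounds, was used to induce EWS-FLI1 shRNA knockdown in A673/TR/shEF Ewing sarcoma cells at 1,500 per well in 384-well plates. Cells then received library compounds at two or more concentrations, or DMSO controls, for three days. Viability was measured by CellTiter-Glo luminescence on an Envision reader, and per-plate LOESS correction, division by the negative-control median and log2 transformation followed.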

[1] = 0.25 µM, library screen: screen2, EWS-FLI1 expression: high (no doxycycline)
[2] = 0.25 µM, library screen: screen2, EWS-FLI1 expression: low (doxycycline-induced shRNA knockdown)
[3] = 2.5 µM, library screen: screen2, EWS-FLI1 expression: high (no doxycycline)
[4] = 2.5 µM, library screen: screen2, EWS-FLI1 expression: low (doxycycline-induced shRNA knockdown)
[5] = 0.25 µM, library screen: screen1, EWS-FLI1 expression: high (no doxycycline)
[6] = 0.25 µM, library screen: screen1, EWS-FLI1 expression: low (doxycycline-induced shRNA knockdown)
[7] = 2.5 µM, library screen: screen1, EWS-FLI1 expression: high (no doxycycline)
[8] = 2.5 µM, library screen: screen1, EWS-FLI1 expression: low (doxycycline-induced shRNA knockdown)
[9] = 25 µM, library screen: screen2, EWS-FLI1 expression: high (no doxycycline)
[10] = 25 µM, library screen: screen2, EWS-FLI1 expression: low (doxycycline-induced shRNA knockdown)
[11] = 0.025 µM, library screen: screen2, EWS-FLI1 expression: high (no doxycycline)
[12] = 0.025 µM, library screen: screen2, EWS-FLI1 expression: low (doxycycline-induced shRNA knockdown)

Measured: cell viability (log2)

Nc1ncnc2c1ncn2C1OC2COP(O)(=S)OC2C1O (stereo not given)
inactive: [1] 0.0926 | [2] 0.132 | [3] 0.0861 | [4] 0.0676

COc1ccc(Cc2nccc3cc(OC)c(OC)cc23)cc1OC
inactive: [5] 0.0975 | [6] 0.126 | [1] 0.144 | [2] 0.0494 | [7] 0.141 | [8] 0.216 | [3] 0.00334 | [4] 0.125

Oc1c(Cl)c(Cl)c(Cl)c(Cl)c1Cl
inactive: [5] 0.0795 | [6] 0.0349 | [7] 0.101 | [8] 0.135

O=C1c2ccccc2C(=O)c2ccccc21
inactive: [5] 0.0481 | [6] 0.0868 | [7] 0.203 | [8] 0.0785

CCc1cccc(C)c1N(C(=O)CCl)C(C)COC (stereo not given)
inactive: [5] 0.0561 | [6] 0.0711 | [7] 0.0898 | [8] 0.0634

COc1ccc2c(c1)[nH]c1c(C)nccc12
inactive: [5] 0.0682 | [6] 0.0261 | [7] 0.183 | [8] 0.154

CC(C)N(C(=O)SCC(Cl)=C(Cl)Cl)C(C)C
inactive: [5] 0.0806 | [6] 0.0889 | [7] -0.00898 | [8] 0.0996

COc1ccc(C[C@H]2NC[C@H](O)[C@H]2OC(C)=O)cc1
active: [5] -0.49 | [6] -0.228 | [7] -2.24 | [8] -1.04

CCCN(CCC)CCc1ccc(O)c(O)c1
inactive: [1] 0.238 | [2] 0.0631 | [3] 0.171 | [4] 0.138

NCCc1c[nH]c2ccc(O)cc12
inactive: [1] 0.151 | [2] 0.0973 | [3] 0.138 | [4] 0.11

COc1cc([C@@H]2c3cc4c(cc3[C@H](O)[C@H]3COC(=O)[C@H]23)OCO4)cc(OC)c1OC
active: [5] -3.56 | [6] -1.09 | [7] -4.23 | [8] -0.986 | [3] -1.33 | [4] -0.175 | [9] -2.9 | [10] -0.496

CO[C@H]1[C@H](O)[C@H](O[C@H]2CC[C@@]3(C)[C@H](CC[C@@H]4[C@@H]3CC[C@]3(C)[C@@H](C5=CC(=O)OC5)CC[C@]43O)C2)O[C@@H](C)[C@@H]1O
active: [7] -4.02 | [8] -4.27

CNC(C)C(O)c1ccccc1 (stereo not given)
inactive: [5] 0.0913 | [6] -0.0933 | [7] 0.0276 | [8] 0.0547

CC[C@H]1CN2CCc3cc(OC)c(OC)cc3[C@@H]2C[C@@H]1C[C@H]1NCCc2cc(OC)c(OC)cc21
active: [1] -0.895 | [2] -0.442 | [7] -1.08 | [8] -0.152 | [3] -2.19 | [4] -1.21 | [9] -2.91 | [10] -1.84
inactive: [11] 0.187 | [12] 0.0478 | [5] 0.11 | [6] 0.116

CS(=N)(=O)CC[C@H](N)C(=O)O (stereo not given in full)
inactive: [1] 0.123 | [2] 0.148 | [3] 0.135 | [4] 0.0831

COc1cc2c(cc1-c1cc3cc4ccoc4cc3oc1=O)OCO2
inactive: [5] 0.0215 | [6] -0.011 | [7] 0.0285 | [8] 0.107

C#C[C@]1(O)C=C[C@H]2[C@@H]3CCC4=CC(=O)CC[C@@H]4[C@H]3CC[C@@]21CC
inactive: 0.103 µM, library screen: screen3, EWS-FLI1 expression: high (no doxycycline) -0.0375 | 0.103 µM, library screen: screen3, EWS-FLI1 expression: low (doxycycline-induced shRNA knockdown) 0.0598 | 0.308 µM, library screen: screen3, EWS-FLI1 expression: high (no doxycycline) -0.000217 | 0.308 µM, library screen: screen3, EWS-FLI1 expression: low (doxycycline-induced shRNA knockdown) 0.0405 | 0.926 µM, library screen: screen3, EWS-FLI1 expression: high (no doxycycline) -0.0178 | 0.926 µM, library screen: screen3, EWS-FLI1 expression: low (doxycycline-induced shRNA knockdown) 0.0411 | 2.8 µM, library screen: screen3, EWS-FLI1 expression: high (no doxycycline) 0.00995 | 2.8 µM, library screen: screen3, EWS-FLI1 expression: low (doxycycline-induced shRNA knockdown) 0.0219 | 8.3 µM, library screen: screen3, EWS-FLI1 expression: high (no doxycycline) 0.0185 | 8.3 µM, library screen: screen3, EWS-FLI1 expression: low (doxycycline-induced shRNA knockdown) 0.0303 | 25 µM, library screen: screen3, EWS-FLI1 expression: high (no doxycycline) -0.0179 | 25 µM, library screen: screen3, EWS-FLI1 expression: low (doxycycline-induced shRNA knockdown) 0.101

CC1(C(=O)O)C2CCC(O2)C1(C)C(=O)O (stereo not given)
inactive: 0.025 µM, library screen: screen1, EWS-FLI1 expression: high (no doxycycline) 0.144 | 0.025 µM, library screen: screen1, EWS-FLI1 expression: low (doxycycline-induced shRNA knockdown) -0.0798 | [5] 0.0748 | [6] -0.099 | [1] 0.137 | [2] 0.0724 | [7] -0.00382 | [8] -0.0912 | [3] 0.0145 | [4] 0.0152
active: 25 µM, library screen: screen1, EWS-FLI1 expression: high (no doxycycline) -0.932 | 25 µM, library screen: screen1, EWS-FLI1 expression: low (doxycycline-induced shRNA knockdown) -0.597

CC(C)(C)NCC(O)c1ccccc1Cl (stereo not given)
inactive: [5] 0.163 | [6] 0.0576 | [1] 0.223 | [2] 0.0914 | [7] 0.0916 | [8] 0.0437 | [3] 0.0908 | [4] 0.0575

COC(=O)/C=C(\C)OP(=O)(OC)OC
inactive: [5] -0.00893 | [6] -0.0133 | [7] 0.034 | [8] 0.0603

O=C1NC(=O)C(=O)C(=O)N1
inactive: [5] 0.0702 | [6] 0.00675 | [7] 0.14 | [8] 0.0562

CC(C)c1ccc2c(c1O)CCC1C3=C(CCC21C)C(=O)OC3 (stereo not given)
inactive: [5] 0.0257 | [6] 0.104 | [7] 0.151 | [8] 0.343

CN(C)C(=S)SSC(=S)N(C)C
active: [5] -2.91 | [6] -2.1 | [7] -2.99 | [8] -2.02

CO[C@]12C[C@@H](COC(=O)c3cncc(Br)c3)CN(C)[C@@H]1Cc1cn(C)c3cccc2c13
inactive: [5] 0.137 | [6] -0.0115 | [7] 0.157 | [8] 0.125

C[C@H]1C(=O)O[C@@H]2CCN3CC=C(COC(=O)[C@](C)(O)[C@]1(C)O)[C@H]23
inactive: [11] 0.0665 | [12] 0.0541 | [5] 0.00981 | [6] 0.0549 | [1] 0.122 | [2] 0.0363 | [7] 0.0901 | [8] 0.111 | [3] 0.0833 | [4] 0.0416 | [9] 0.0406 | [10] 0.0625

NCc1cc(=O)[nH]o1
inactive: [1] 0.179 | [2] 0.0332 | [3] -0.00258 | [4] 0.109

CCCN(CCC)[C@@H]1CCc2cccc(O)c2C1
inactive: [1] 0.0735 | [2] 0.0396 | [3] 0.0488 | [4] 0.128
